Measured values: the antibiotic and cytotoxicity screens of Wong et al. (2023)
This is one part of the list.

Experiments:
[1] = system: HSkMC (human skeletal muscle cells); assay: cytotoxicity call (relative viability < 0.9); settings: 10 µM
[2] = system: HepG2; assay: cytotoxicity call (relative viability < 0.9); settings: 10 µM
[3] = system: S. aureus RN4220; assay: growth inhibition call (relative growth <= 0.2); settings: 50 µM

Cc1cc(C)nc(N2CC(=O)NC2=N)n1
inactive: cytotoxicity call [1] | cytotoxicity call [2] | growth inhibition call [3]

C[C@@H]1CCCCO[C@@H](CN(C)C(=O)Nc2cccc3ccccc23)[C@@H](C)CN([C@H](C)CO)C(=O)c2cc(NC(=O)c3ccccc3)ccc2O1
inactive: cytotoxicity call [1] | cytotoxicity call [2] | growth inhibition call [3]

CN1C(=O)c2cc(NC(=O)C3CCCC3)ccc2OC[C@@H]2O[C@@H](CC(=O)NCCc3ccncc3)CC[C@@H]21
inactive: cytotoxicity call [1] | cytotoxicity call [2] | growth inhibition call [3]

Cn1cnc(S(=O)(=O)N2C[C@@H](O)COC[C@H]3O[C@@H](CC(=O)NC4CCC4)CC[C@@H]32)c1
inactive: cytotoxicity call [1] | cytotoxicity call [2] | growth inhibition call [3]

COc1ccc(S(=O)(=O)N2C[C@@H](O)COC[C@H]3O[C@@H](CC(=O)NCCCN(C)C)CC[C@@H]32)cc1
inactive: cytotoxicity call [1] | cytotoxicity call [2] | growth inhibition call [3]
